B1: 1H3-hIgG1-L6-hIL-2 (D20A/F42P) (protein)
heavy: EVQLVESGGGLVQPGRSLKLSCAVSGFTFSDYAMAWVRQAPKKGLEWVATISYDGSRTYYRDSVKGRFTISRDNAKITLYLQMDSLRSEDTATYYCARHGSGYFDYWGQGVMVTVSS[not shown - about 450 residues with a human IgG1 Fc and changes]
light: DTVLTQSPALAVSPGERVTISCRASESVRTGVHWYQQKPGQQPKLLIYGASNLESGVPARFSGSGSGTDFTLTIDPVEADDTATYFCQQSWNDPFTFGSGTKLEIKRTVAAPSVFIFPPSDEQLKSGTASVVCLLNNFYPREAKVQWKVDNALQSGNSQESVTEQDSKDSTYSLSSTLTLSKADYEKHKVYACEVTHQGLSSPVTKSFNRGEC
B2: 1H3-hIgG1-L6-hIL-2 (D20A/F42S) (protein)
heavy: EVQLVESGGGLVQPGRSLKLSCAVSGFTFSDYAMAWVRQAPKKGLEWVATISYDGSRTYYRDSVKGRFTISRDNAKITLYLQMDSLRSEDTATYYCARHGSGYFDYWGQGVMVTVSS[not shown - about 450 residues with a human IgG1 Fc and changes]
light: B1 light
B3: 1H3-hIgG1-L6-hIL-2 (D20A/F42T) (protein)
heavy: EVQLVESGGGLVQPGRSLKLSCAVSGFTFSDYAMAWVRQAPKKGLEWVATISYDGSRTYYRDSVKGRFTISRDNAKITLYLQMDSLRSEDTATYYCARHGSGYFDYWGQGVMVTVSS[not shown - about 450 residues with a human IgG1 Fc and changes]
light: B1 light
B4: 1H3-hIgG1-L6-hIL-2 (D20A/F42W) (protein)
heavy: EVQLVESGGGLVQPGRSLKLSCAVSGFTFSDYAMAWVRQAPKKGLEWVATISYDGSRTYYRDSVKGRFTISRDNAKITLYLQMDSLRSEDTATYYCARHGSGYFDYWGQGVMVTVSS[not shown - about 450 residues with a human IgG1 Fc and changes]
light: B1 light
B5: 1H3-hIgG1-L6-hIL-2 (D20A/F42Y) (protein)
heavy: EVQLVESGGGLVQPGRSLKLSCAVSGFTFSDYAMAWVRQAPKKGLEWVATISYDGSRTYYRDSVKGRFTISRDNAKITLYLQMDSLRSEDTATYYCARHGSGYFDYWGQGVMVTVSS[not shown - about 450 residues with a human IgG1 Fc and changes]
light: B1 light
B6: 1H3-hIgG1-L6-hIL-2 (D20A/F42V) (protein)
heavy: EVQLVESGGGLVQPGRSLKLSCAVSGFTFSDYAMAWVRQAPKKGLEWVATISYDGSRTYYRDSVKGRFTISRDNAKITLYLQMDSLRSEDTATYYCARHGSGYFDYWGQGVMVTVSS[not shown - about 450 residues with a human IgG1 Fc and changes]
light: B1 light
B7: 1H3-hIgG1-L6-hIL-2 (D20A/Y45A) (protein)
heavy: EVQLVESGGGLVQPGRSLKLSCAVSGFTFSDYAMAWVRQAPKKGLEWVATISYDGSRTYYRDSVKGRFTISRDNAKITLYLQMDSLRSEDTATYYCARHGSGYFDYWGQGVMVTVSS[not shown - about 450 residues with a human IgG1 Fc and changes]
light: B1 light
B8: 1H3-hIgG1-L6-hIL-2 (D20A/Y45N) (protein)
heavy: EVQLVESGGGLVQPGRSLKLSCAVSGFTFSDYAMAWVRQAPKKGLEWVATISYDGSRTYYRDSVKGRFTISRDNAKITLYLQMDSLRSEDTATYYCARHGSGYFDYWGQGVMVTVSS[not shown - about 450 residues with a human IgG1 Fc and changes]
light: B1 light
B9: 1H3-hIgG1-L6-hIL-2 (D20A/Y45D) (protein)
heavy: EVQLVESGGGLVQPGRSLKLSCAVSGFTFSDYAMAWVRQAPKKGLEWVATISYDGSRTYYRDSVKGRFTISRDNAKITLYLQMDSLRSEDTATYYCARHGSGYFDYWGQGVMVTVSS[not shown - about 450 residues with a human IgG1 Fc and changes]
light: B1 light
B10: 1H3-hIgG1-L6-hIL-2 (D20A/Y45Q) (protein)
heavy: EVQLVESGGGLVQPGRSLKLSCAVSGFTFSDYAMAWVRQAPKKGLEWVATISYDGSRTYYRDSVKGRFTISRDNAKITLYLQMDSLRSEDTATYYCARHGSGYFDYWGQGVMVTVSS[not shown - about 450 residues with a human IgG1 Fc and changes]
light: B1 light
B11: 1H3-hIgG1-L6-hIL-2 (D20A/Y45E) (protein)
heavy: EVQLVESGGGLVQPGRSLKLSCAVSGFTFSDYAMAWVRQAPKKGLEWVATISYDGSRTYYRDSVKGRFTISRDNAKITLYLQMDSLRSEDTATYYCARHGSGYFDYWGQGVMVTVSS[not shown - about 450 residues with a human IgG1 Fc and changes]
light: B1 light

What follows are binders tested against high-affinity hIL-2 receptor (IL-2Rαβγ) (human) (UniProt P01589) (assay: cell-based or functional assay).

Going from B1 to B2, the Fold change from hIL-2 (NK-92), pSTAT5 fixed conc. falls from 17 fold to 15 fold.

B3 and B4 are the same in Fold change from hIL-2 (NK-92), pSTAT5 fixed conc.: 16 fold for the first, 16 fold for the second.

Going from B5 to B6, the Fold change from hIL-2 (NK-92), pSTAT5 fixed conc. rises from 17 fold to 18 fold.

First: B7
Second: B8
The Fold change from hIL-2 (NK-92), pSTAT5 fixed conc. of the first is higher: 15 fold for the first, 14 fold for the second.

Compared with B9, B10 is lower in Fold change from hIL-2 (NK-92), pSTAT5 fixed conc.: 18 fold for the first, 17 fold for the second.

For B11, the Fold change from hIL-2 (NK-92), pSTAT5 fixed conc. was 18 fold.

B1 and B2 cannot be ordered by Fold change from rhIL-2 (NK-92), pSTAT5 titration: over 10000 fold for the first, over 10000 fold for the second.

B11 was tested, and the Fold change from rhIL-2 (NK-92), pSTAT5 titration was 4720 fold.

What follows are binders tested against high-affinity hIL-2 receptor (IL-2Rαβγ) on NK-92 cells (human) (UniProt P01589) (assay: cell-based or functional assay).

Going from B1 to B2, the Agonistic Activity (NK-92) falls from 80% to 70%.

Compared with B3, B4 is higher in Agonistic Activity (NK-92): 10% for the first, 70% for the second.

Going from B5 to B6, the Agonistic Activity (NK-92) falls from 70% to 30%.

First: B7
Second: B9
The Agonistic Activity (NK-92) of the first is higher: 80% for the first, 60% for the second.

First: B10
Second: B11
The Agonistic Activity (NK-92) of the first is higher: 70% for the first, 60% for the second.

First: B1
Second: B2
The Fold change from rhIL-2 (NK-92) of the first is higher: 9370 fold for the first, 1290 fold for the second.

Going from B3 to B4, the Fold change from rhIL-2 (NK-92) falls from 1470 fold to 414 fold.

Compared with B5, B6 is higher in Fold change from rhIL-2 (NK-92): 322 fold for the first, 5800 fold for the second.

Going from B7 to B8, the Fold change from rhIL-2 (NK-92) falls from 61 fold to 31 fold.

Going from B9 to B10, the Fold change from rhIL-2 (NK-92) rises from 363 fold to 730 fold.

B11 showed a Fold change from rhIL-2 (NK-92) of 1410 fold.

These binders were tested against intermediate affinity hIL-2 receptor (hIL-2Rβγ) on TF1+IL-2Rβ cells (human) (UniProt P14784) (assay: cell-based or functional assay).

First: B1
Second: B2
The Agonistic Activity (TF1 + IL-2Rβ) of the first is higher: 80% for the first, 70% for the second.

Going from B3 to B4, the Agonistic Activity (TF1 + IL-2Rβ) falls from 80% to 70%.

Going from B5 to B6, the Agonistic Activity (TF1 + IL-2Rβ) rises from 70% to 80%.

Compared with B7, B8 is lower in Agonistic Activity (TF1 + IL-2Rβ): 80% for the first, 70% for the second.

B9 and B10 are the same in Agonistic Activity (TF1 + IL-2Rβ): 70% for the first, 70% for the second.

Binder B11 has an Agonistic Activity (TF1 + IL-2Rβ) of 70%.

Compared with B1, B2 is lower in Fold change from rhIL-2 (TF1 + IL-2Rβ): 702 fold for the first, 687 fold for the second.

Compared with B3, B4 is lower in Fold change from rhIL-2 (TF1 + IL-2Rβ): 622 fold for the first, 400 fold for the second.

Going from B5 to B6, the Fold change from rhIL-2 (TF1 + IL-2Rβ) rises from 545 fold to 579 fold.

Going from B7 to B8, the Fold change from rhIL-2 (TF1 + IL-2Rβ) falls from 554 fold to 390 fold.

First: B9
Second: B10
The Fold change from rhIL-2 (TF1 + IL-2Rβ) of the first is higher: 729 fold for the first, 348 fold for the second.

For B11, the Fold change from rhIL-2 (TF1 + IL-2Rβ) was 486 fold.

Each binder was assayed against intermediate affinity hIL-2 receptor complex (IL-2Rβγ) (human) (UniProt P14784) (assay: cell-based or functional assay).

B1 and B2 are the same in Fold change from hIL-2 (TF1 + IL-2Rβ), pSTAT5 fixed conc.: 2 fold for the first, 2 fold for the second.

B3 and B4 are the same in Fold change from hIL-2 (TF1 + IL-2Rβ), pSTAT5 fixed conc.: 2 fold for the first, 2 fold for the second.

B5 and B6 are the same in Fold change from hIL-2 (TF1 + IL-2Rβ), pSTAT5 fixed conc.: 2 fold for the first, 2 fold for the second.

B7 and B8 are the same in Fold change from hIL-2 (TF1 + IL-2Rβ), pSTAT5 fixed conc.: 2 fold for the first, 2 fold for the second.

B9 and B10 are the same in Fold change from hIL-2 (TF1 + IL-2Rβ), pSTAT5 fixed conc.: 3 fold for the first, 3 fold for the second.

In the case of B11, the Fold change from hIL-2 (TF1 + IL-2Rβ), pSTAT5 fixed conc. is reported as 3 fold.

First: B1
Second: B2
The Fold change from rhIL-2 (TF1 + IL-2Rβ), pSTAT5 titration of the first is lower: 13 fold for the first, 17 fold for the second.

B11 showed a Fold change from rhIL-2 (TF1 + IL-2Rβ), pSTAT5 titration of 32 fold.
